In PubChem BioAssay AID1508623 (National Center for Advancing Translational Sciences (NCATS), 2021):
Values joined by “and” are separate entries in the source; they are usually repeats but may differ in a detail not shown here. Equal entries are not always repeated. Screen size: about 48,000 compounds; about 450 (0.94%) were called active. Inconclusive means that the source gave no clear call. Such entries were picked first, then a sample of the others. The call rests on the fitted dose curve; in most records, active means well fitted inhibition curve with a large enough effect; inconclusive means small, poorly fitted or top-dose-only effect; inactive means no such curve, though single readings can be large or run the other way. Potencies of inconclusive entries are doubtful fits and often do not repeat.

Assay: Primary qHTS for Identification of Small Molecule Inhibitors of Huntingtin Promoter Activity; further: nearly all actives have a fitted effect of over 50% in size
Settings: HEK293 HTT promoter firefly luciferase reporter (activity 0% = vehicle and -100% = no light), 24 h; series mostly up to 57.5 µM
Description: Assay Provider: Russell L. Margolis M.D.
Department Neurology, Johns Hopkins University School of Medicine, Baltimore, MD
Huntington's Disease (HD) is a neurodegenerative disorder caused by a CAG repeat expansion in exon 1 of huntingtin (HTT). While there are currently no disease-modifying treatments for HD, recent efforts have focused on development of nucleotide-based therapeutics to lower HTT expression. As an alternative to siRNA or oligonucleotide methods, we hypothesized that suppression of HTT expression might be accomplished by small molecules that either (1) directly decrease HTT expression by suppressing HTT promoter activity or (2) indirectly decrease HTT expression by increasing the promoter activity of HTT-AS, the gene antisense to HTT that appears to inhibit expression of HTT.
We developed and employed a high throughput screen for modifiers of HTT and HTT-AS promoter activity using luminescent reporter HEK293 cells; of the 52,041 compounds tested, we identified 898 replicable hits. We used a rigorous stepwise approach to assess compound toxicity and the capacity of the compounds to specifically lower huntingtin protein in 5 different cell lines, including HEK293 cells, HD lymphoblastoid cells, mouse primary neurons, HD iPSCs differentiated into cortical-like neurons, and HD hESCs. We found no compounds which were able to lower huntingtin without lowering cell viability in all assays, though the potential efficacy of a few compounds at non-toxic doses could not be excluded.
SEQUENCE No. (1, 2, 3, etc.); […] (e.g., Cells, Incubation, Reagent, etc.); VALUE and DESCRIPTION.
1; Reagent; 4 uL; 2,500 Hek293 luciferase reporter cells per wells
3; Compound; 23 nL; Control inhibitor / compound library
5; Reagent; 2.5 uL; Firefly Luc reagent; Dual-Glo Luciferase Reporter Assay System (Promega)
6; Time; 10 min; room temperature incubation
7; Detection; Luminescence; FLuc
NOTES (numbers refer to sequence above)
1; High-throughput screening, measuring luminescence from a Hek293 luciferase reporter, was performed in 1,536 well white-walled tissue-culture treated plates. 2,500 cells were plated in 4 µL of Opti-MEM per well using a Multidrop Combi Reagent Dispenser (ThermoFisher).
2; Assay plates were cultured for 24 hours.
3; Control inhibitor (PTC124; final concentration of 50 uM) and compound library (at final concentrations of 460 nM - 57.5 uM) were added to the assay plate using the Kalypsis Pintool Robotic System equipped with 1536 pinheads.
4; Cells were then incubated for 24 hours at 37 degrees C prior to luminescence measurements.
5; In all cases, luminescence was measured using the Dual-Glo Luciferase Reporter Assay System (Promega) following the manufacturer's instructions.
6; Room temperature incubation.
7; Luminescence signal was obtained using the PerkinElmer ViewLux plate reader. Results were normalized to vehicle control (0% activity) and zero RLU (-100% activity).
Potency means the concentration at half of the fitted maximal effect; tags describe the fitted curve by direction and shape.

SMILES	Potency
COc1ccc(CC2NCCc3cc(OC)c(OC)cc32)cc1OC (stereo not given)	inconclusive: 17.2 µM [inhibitor, partial curve]
CCCCCC[C@H]1C(=O)O[C@H](C)[C@H](NC(=O)c2cccc(NC=O)c2O)C(=O)O[C@@H](C)[C@@H]1OC(=O)CC(C)C	inconclusive: 0.0863 µM [inhibitor, full curve]
CC(C)[C@]12O[C@@H]1[C@@H]1O[C@]13[C@]1(O[C@H]1C[C@@H]1C4=C(CC[C@@]13C)C(=O)OC4)[C@H]2O	inactive
c1ccc2c(c1)OCC(C1=NCCN1)O2 (stereo not given)	inconclusive: 31.6 µM [inhibitor, single point]
O=C(Nc1nc2ccccc2s1)c1cccn(Cc2ccccc2)c1=O	inconclusive: 7.94 µM [inhibitor, single point]
CNC(=O)c1ccc(N2C(=S)N(c3ccc(C#N)c(C(F)(F)F)c3)C(=O)C23CCC3)cc1F	inconclusive: 21.7 µM [inhibitor, partial curve]
COc1ccc2c(c1OC)CN1CCc3cc4c(cc3C1C2)OCO4 (stereo not given)	inactive
C=CCON=C(C[C@H]1O[C@@H]2O[C@]3(C)CC[C@@H]4[C@H](C)CC[C@@H]([C@H]1C)[C@@]24OO3)[C@H]1O[C@@H]2O[C@]3(C)CC[C@H]4[C@H](C)CC[C@@H]([C@@H]1C)[C@@]24OO3	inconclusive: 3.06 µM [inhibitor, full curve]
C[CH2][Hg][S]c1ccccc1C(=O)O	inconclusive: 39.8 µM [inhibitor, single point]
Cc1ccccc1-n1nc(C)c2c1NC(=O)CSC2c1ccccc1C(F)(F)F (stereo not given)	inconclusive: 25.1 µM [inhibitor, partial curve]
c1ccc(CN2CCNCC2)cc1	inactive
CCCCCCCCCCCCCCCC[N+](C)(C)C	inconclusive: 31.6 µM [inhibitor, single point]
Cc1cccc(-n2c(/C=C\c3cccc(Br)c3)nc3ccccc3c2=O)c1	inconclusive: 31.6 µM [inhibitor, partial curve, poor fit]
COC[C@H]1OC(=O)c2coc3c2[C@@]1(C)C1=C(C3=O)[C@@H]2CC[C@H](O)[C@@]2(C)C[C@@H]1OC(C)=O	inconclusive: 2.43 µM [inhibitor, full curve]
Cc1ccc(Cn2cccc(C(=O)Nc3ccc(C)c(Cl)c3)c2=O)cc1	inconclusive: 7.94 µM [inhibitor, partial curve, poor fit]
Cc1ccccc1-n1c(/C=C/c2ccccc2F)nc2ccccc2c1=O	inconclusive: 39.8 µM [inhibitor, single point]
CC(O)(CS(=O)(=O)c1ccc(F)cc1)C(=O)Nc1ccc(C#N)c(C(F)(F)F)c1 (stereo not given)	inconclusive: 4.85 µM [inhibitor, full curve, poor fit]
COC[C@H]1OC(=O)c2coc3c2[C@@]1(C)C1=C(C3=O)C2CCC(=O)[C@@]2(C)C[C@H]1OC(C)=O (stereo not given in full)	inconclusive: 6.85 µM [inhibitor, partial curve]

SMILES	Potency
Cc1cccc(CN2C(=O)CN=C(c3ccccc3Cl)c3cc(Cl)ccc32)c1	inconclusive: 39.8 µM [inhibitor, single point]
C=C[C@@H]1CN2CCC1C[C@@H]2[C@@H](O)c1ccnc2ccccc12 (stereo not given in full)	inconclusive: 24.3 µM [inhibitor, partial curve]
Cc1ccc(C)c(CN2C(=O)c3ccccc3Sc3ccc(C(=O)N4CCC5(CC4)OCCO5)cc32)c1	inconclusive: 25.1 µM [inhibitor, partial curve, poor fit]
O=C(Nc1ccc(OC(F)(F)F)cc1)c1cccn(Cc2ccccc2Cl)c1=O	inconclusive: 3.16 µM [inhibitor, partial curve, poor fit]
Cc1cccc(-n2c(/C=C/c3cccc4ccccc34)nc3ccccc3c2=O)c1	inconclusive: 35.5 µM [inhibitor, single point]
C[C@@H]1C[C@@H]([C@H](O)CC2CC(=O)NC(=O)C2)C(=O)[C@@H](C)C1	inconclusive: 1 µM [inhibitor, full curve] and inconclusive: 1.37 µM [inhibitor, full curve]
CC(=O)c1ccc(NC(=O)c2sc3nc4c(cc3c2N)N2CCC4CC2)cc1	inactive
Cn1c(=O)n(C)c2cc(CNCCc3ccccc3)ccc21	inactive
CC(C)(C)c1cc(C=C(C#N)C#N)cc(Br)c1O	inconclusive: 24.3 µM [inhibitor, single point]
O=C(N[C@@H](COc1ccc2[nH]c(=O)[nH]c2c1)c1ccccc1)c1cccn(Cc2ccc(F)c(F)c2)c1=O	inconclusive: 43.2 µM [inhibitor, partial curve, poor fit]
C[C@@]12OC(=O)[C@]1([C@@H](O)[C@@H]1C=CCCC1)NC(=O)[C@H]2CCCl	inconclusive: 0.0685 µM [inhibitor, full curve]
C[C@@H]1[C@@H](CC(C[C@H]2O[C@@H]3O[C@]4(C)CC[C@@H]5[C@H](C)CC[C@@H]([C@H]2C)[C@@]35OO4)C[S+](=O)([O-])c2ccc(COC(=O)N(C)C)cc2)O[C@@H]2O[C@]3(C)CC[C@H]4[C@H](C)CC[C@@H]1[C@@]24OO3 (stereo not given in full)	inconclusive: 1.22 µM [inhibitor, full curve]
O=C1CN=C(c2ccccc2)c2cc(Cl)ccc2N1Cc1ccc(Cl)cc1	inconclusive: 28.2 µM [inhibitor, partial curve, poor fit]
Nc1c(C(=O)Nc2ccc(OC(F)(F)F)cc2)sc2nc3c(cc12)N1CCC3CC1	active: 7.94 µM
COc1cc(/C=C/c2nc3ccccc3c(=O)n2-c2ccc(Br)c(C)c2)ccc1O	inconclusive: 39.8 µM [inhibitor, single point]
Cc1ccc(NC(=O)CN2C(=O)CN=C(c3ccccc3)c3ccccc32)c(C)c1	inconclusive: 35.5 µM [inhibitor, single point]
O=C(c1ccc2c(c1)N(Cc1ccc(F)cc1Cl)C(=O)c1ccccc1S2)N1CCC2(CC1)OCCO2	inconclusive: 14.1 µM [inhibitor, partial curve]
